# Laboratory results taken from the supplement of paper PMC8728848.
# The other results are listed elsewhere or left out.
# How the values were obtained:
# Experiment in all cases: glycan array binding signal (z-score within array); higher = stronger binding
# Settings in all cases: glycan notation: IUPAC condensed, linker removed
# [1] = target: Fuc(a1-2)Gal
# How it was run: (§1)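 Columns mapping to the same glycan were averaged after glycan names were converted to IUPAC-condensed notation. The data come from 3228 arrays in the Consortium for Functional Glycomics database, limited to those with an available protein sequence. Binding is reported as a within-array Z-score averaged across arrays of one protein sequence and across linkers.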
# [2] = target: Fuc(a1-2)Gal(b1-3)GalNAc
# How it was run: as §1
# [3] = target: Fuc(a1-2)Gal(b1-3)GalNAc(a1-3)[Fuc(a1-2)]Gal(b1-4)Glc
# How it was run: as §1
# [4] = target: Fuc(a1-2)Gal(b1-3)GalNAc(a1-3)[Fuc(a1-2)]Gal(b1-4)GlcNAc
# How it was run: as §1
# [5] = target: Fuc(a1-2)Gal(b1-3)GalNAc(b1-3)Gal
# How it was run: as §1
# [6] = target: Fuc(a1-2)Gal(b1-3)GalNAc(b1-3)Gal(a1-4)Gal(b1-4)Glc
# How it was run: as §1
# [7] = target: Fuc(a1-2)Gal(b1-3)GalNAc(b1-4)[Neu5Ac(a2-3)]Gal(b1-4)Glc
# How it was run: as §1
# [8] = target: Fuc(a1-2)Gal(b1-3)GlcNAc
# How it was run: as §1
# [9] = target: Fuc(a1-2)Gal(b1-3)GlcNAc(b1-2)Man(a1-3)[Fuc(a1-2)Gal(b1-3)GlcNAc(b1-2)Man(a1-6)]Man(b1-4)GlcNAc(b1-4)GlcNAc
# How it was run: as §1
# [10] = target: Fuc(a1-2)Gal(b1-3)GlcNAc(b1-2)Man(a1-3)[Fuc(a1-2)Gal(b1-3)GlcNAc(b1-2)Man(a1-6)]Man(b1-4)GlcNAc(b1-4)[Fuc(a1-6)]GlcNAc
# How it was run: as §1
# [11] = target: Fuc(a1-2)Gal(b1-3)GlcNAc(b1-3)Gal(b1-4)Glc
# How it was run: as §1
# [12] = target: Fuc(a1-2)Gal(b1-3)GlcNAc(b1-3)GalNAc
# How it was run: as §1
# [13] = target: Fuc(a1-2)Gal(b1-3)GlcNAc(b1-3)[Fuc(a1-2)Gal(b1-3)GlcNAc(b1-6)]GalNAc
# How it was run: as §1
# [14] = target: Fuc(a1-2)Gal(b1-3)GlcNAc(b1-3)[Gal(b1-4)GlcNAc(b1-6)]Gal(b1-4)Glc
# How it was run: as §1
# [15] = target: Fuc(a1-2)Gal(b1-3)GlcNAc(b1-3)[Neu5Ac(a2-6)Gal(b1-4)GlcNAc(b1-6)]Gal(b1-4)Glc
# How it was run: as §1
# [16] = target: Fuc(a1-2)Gal(b1-3)GlcNAc6S
# How it was run: as §1
# [17] = target: Fuc(a1-2)Gal(b1-3)[Fuc(a1-4)]GlcNAc
# How it was run: as §1
# [18] = target: Fuc(a1-2)Gal(b1-3)[Fuc(a1-4)]GlcNAc(b1-2)Man(a1-3)[Fuc(a1-2)Gal(b1-3)[Fuc(a1-4)]GlcNAc(b1-2)Man(a1-3)]Man(b1-4)GlcNAc(b1-4)GlcNAc
# How it was run: as §1
# [19] = target: Fuc(a1-2)Gal(b1-3)[Fuc(a1-4)]GlcNAc(b1-2)Man(a1-3)[Fuc(a1-2)Gal(b1-3)[Fuc(a1-4)]GlcNAc(b1-2)Man(a1-6)]Man(b1-4)GlcNAc(b1-4)[Fuc(a1-6)]GlcNAc(b1-4)[Fuc(a1-6)]GlcNAc
# How it was run: as §1
# [20] = target: Fuc(a1-2)Gal(b1-3)[Fuc(a1-4)]GlcNAc(b1-3)[Fuc(a1-3)[Gal(b1-4)]GlcNAc(b1-6)]Gal(b1-4)Glc
# How it was run: as §1
# [21] = target: Fuc(a1-2)Gal(b1-3)[Fuc(a1-4)]GlcNAc(b1-3)[Gal(b1-4)GlcNAc(b1-6)]Gal(b1-4)Glc
# How it was run: as §1
# [22] = target: Fuc(a1-2)Gal(b1-4)Glc
# How it was run: as §1
# [23] = target: Fuc(a1-2)Gal(b1-4)Glc6S
# How it was run: as §1
# [24] = target: Fuc(a1-2)Gal(b1-4)GlcNAc
# How it was run: as §1
# [25] = target: Fuc(a1-2)Gal(b1-4)GlcNAc(b1-2)Man
# How it was run: as §1
# [26] = target: Fuc(a1-2)Gal(b1-4)GlcNAc(b1-2)Man(a1-3)[Fuc(a1-2)Gal(b1-4)GlcNAc(b1-2)Man(a1-6)]Man(b1-4)GlcNAc(b1-4)GlcNAc
# How it was run: as §1
# [27] = target: Fuc(a1-2)Gal(b1-4)GlcNAc(b1-2)Man(a1-3)[Fuc(a1-2)Gal(b1-4)GlcNAc(b1-2)Man(a1-6)]Man(b1-4)GlcNAc(b1-4)[Fuc(a1-6)]GlcNAc
# How it was run: as §1
# [28] = target: Fuc(a1-2)Gal(b1-4)GlcNAc(b1-2)[Fuc(a1-2)Gal(b1-4)GlcNAc(b1-4)]Man(a1-3)[Fuc(a1-2)Gal(b1-4)GlcNAc(b1-2)Man(a1-6)]Man(b1-4)GlcNAc(b1-4)GlcNAc
# How it was run: as §1
# [29] = target: Fuc(a1-2)Gal(b1-4)GlcNAc(b1-3)Gal(b1-4)GlcNAc
# How it was run: as §1
# [30] = target: Fuc(a1-2)Gal(b1-4)GlcNAc(b1-3)Gal(b1-4)GlcNAc(b1-2)Man(a1-3)[Fuc(a1-2)Gal(b1-4)GlcNAc(b1-3)Gal(b1-4)GlcNAc(b1-2)Man(a1-6)]Man(b1-4)GlcNAc(b1-4)GlcNAc
# How it was run: as §1
binder,measurement,setting,value
CBM40 CPF071 (Clostridium perfringens) (protein) MAHHHHHHVGTGSNDDDDKSPDPMLSSLGEYKDINLESSNASNITYDLEKYKNLDEGTIVVRFNSKDSKIQSLLGISNSKTKNGYFNFYVTNSRVGFELRNQKNEGNTQNGTENLVHMYKDVALNDGDNTVALKIEKNKGYKLFLNGKMIKEVKDTNTKFLNNIENLDSAFIGKTNRYGQSNEYNFKGNIGFMNIYNEPLGDDYLLSKTGETK,glycan array binding signal (z-score),[1],-0.208
same,glycan array binding signal (z-score),[2],-0.372
same,glycan array binding signal (z-score),[3],-0.212
same,glycan array binding signal (z-score),[4],-0.352
same,glycan array binding signal (z-score),[5],-0.348
same,glycan array binding signal (z-score),[6],-0.319
same,glycan array binding signal (z-score),[7],-0.026
same,glycan array binding signal (z-score),[8],-0.384
same,glycan array binding signal (z-score),[9],-0.284
same,glycan array binding signal (z-score),[10],-0.389
same,glycan array binding signal (z-score),[11],-0.449
same,glycan array binding signal (z-score),[12],0.574
same,glycan array binding signal (z-score),[13],0.049
same,glycan array binding signal (z-score),[14],-0.319
same,glycan array binding signal (z-score),[15],0.311
same,glycan array binding signal (z-score),[16],-0.366
same,glycan array binding signal (z-score),[17],-0.015
same,glycan array binding signal (z-score),[18],0.148
same,glycan array binding signal (z-score),[19],0.652
same,glycan array binding signal (z-score),[20],0.335
same,glycan array binding signal (z-score),[21],-0.403
same,glycan array binding signal (z-score),[22],-0.55
same,glycan array binding signal (z-score),[23],-0.132
same,glycan array binding signal (z-score),[24],-0.027
same,glycan array binding signal (z-score),[25],-0.627
same,glycan array binding signal (z-score),[26],-0.22
same,glycan array binding signal (z-score),[27],-0.265
same,glycan array binding signal (z-score),[28],-0.284
same,glycan array binding signal (z-score),[29],0.231
same,glycan array binding signal (z-score),[30],-0.32
